Assay results: the supplement of paper PMC10126150
Values marked as one replicate rest on one cluster of the flow cell; about a third of the high ones do not repeat.
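Further: ATP exposure 15 min at 22 °C before imaging.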

Each sequence was assayed on ATP (assay: switch fluorescence ratio, 500 uM ATP over buffer (Cy3 cluster intensity, sum of 5 cycles each) (fold (ratio)); higher = stronger signal-on switching upon ATP binding; sequences stand for … in TCGTCGGCAGCGTCAGATGTGTATAAGAGACAGTTTTTTTTTTTTTTTTTTTTTTTTT…TC). Settings: aptamer strand: ATP DNA aptamer (quencher-CACCTGGGGGAGTATTGCGGAGGAAGG + anchor), 100 nM annealed; ATP concentration: 500 uM; one replicate.
Outline: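 After annealing to 100 nM quencher-labelled ATP aptamer, Cy3-labelled switching-strand clusters on a modified Illumina MiSeq flow-cell were imaged in selection buffer. A second image followed after 15 min with 500 uM ATP at 22 °C, and five such buffer/ATP cycles were done, each separated by NaOH stripping and re-annealing. The fluorescence ratio, averaged per switch-domain sequence, is summed target-cycle over summed buffer-cycle Cy3 intensity per cluster, with clusters outside 100-1000 RFU excluded.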
AAAAACATGT gave a switch fluorescence ratio of 0.99.
Sequence AAAAAGATTA has a switch fluorescence ratio of 1.02.
For AAAAATTGAA, the switch fluorescence ratio was 0.976.
AAAAATTGCG was tested, and the switch fluorescence ratio was 1.01.
AAAAATTGGA was tested, and the switch fluorescence ratio was 0.918.
AAAACAGAGT gave a switch fluorescence ratio of 0.996.
For AAAACATCCA, the switch fluorescence ratio was 1.03.
AAAACCACGG gave a switch fluorescence ratio of 1.4.
AAAACCGGTC showed a switch fluorescence ratio of 1.2.
AAAACGTTTT gave a switch fluorescence ratio of 0.987.
Sequence AAAACTAGCT has a switch fluorescence ratio of 1.02.
AAAACTAGTT gave a switch fluorescence ratio of 0.981.
In the case of AAAACTGATA, the switch fluorescence ratio is reported as 0.995.
For AAAAGAATAC, the switch fluorescence ratio was 1.09.
AAAAGATGTT gave a switch fluorescence ratio of 1.
AAAAGCCACG showed a switch fluorescence ratio of 1.05.
For AAAAGCTAAG, the switch fluorescence ratio was 1.03.
For AAAAGCTAGG, the switch fluorescence ratio was 1.03.
For AAAAGCTCCT, the switch fluorescence ratio was 1.12.
For AAAAGCTTGT, the switch fluorescence ratio was 1.08.
For AAAAGGAAC, the switch fluorescence ratio was 1.01.
Sequence AAAAGGAGAT has a switch fluorescence ratio of 0.998.
Sequence AAAAGGGAG has a switch fluorescence ratio of 1.03.
AAAAGGGGAC was tested, and the switch fluorescence ratio was 1.01.
With AAAAGGGTT the switch fluorescence ratio was 1.01.
With AAAAGGTAAC the switch fluorescence ratio was 1.05.
For AAAAGGTG, the switch fluorescence ratio was 1.12.
AAAAGTCTA showed a switch fluorescence ratio of 1.01.
AAAAGTTCT was tested, and the switch fluorescence ratio was 0.943.
AAAATAGCGC was tested, and the switch fluorescence ratio was 1.03.
Sequence AAAATAGTCC has a switch fluorescence ratio of 0.995.
Work on AAAATATATG yielded a switch fluorescence ratio of 0.987.
Sequence AAAATCTGG has a switch fluorescence ratio of 1.
AAAATGAGAC showed a switch fluorescence ratio of 1.04.
AAAATGTGTC gave a switch fluorescence ratio of 1.
For AAAATTACCT, the switch fluorescence ratio was 1.61.
AAAATTAGTA gave a switch fluorescence ratio of 0.992.
With AAAATTGAGT the switch fluorescence ratio was 1.04.
Sequence AAACAATCGT has a switch fluorescence ratio of 0.98.
With AAACACAATG the switch fluorescence ratio was 1.04.
For AAACACATTA, the switch fluorescence ratio was 1.07.
Work on AAACACCCAG yielded a switch fluorescence ratio of 1.15.
With AAACACTCAG the switch fluorescence ratio was 0.997.
AAACAGATAT showed a switch fluorescence ratio of 1.03.
AAACAGTATT was tested, and the switch fluorescence ratio was 1.07.
Sequence AAACAGTGTA has a switch fluorescence ratio of 1.01.
Sequence AAACATCCA has a switch fluorescence ratio of 1.02.
Sequence AAACCAAATG has a switch fluorescence ratio of 1.02.
In the case of AAACCATGGA, the switch fluorescence ratio is reported as 0.99.
For AAACCGACTC, the switch fluorescence ratio was 2.72.
AAACCGCGTC showed a switch fluorescence ratio of 2.15.
AAACGAAGT gave a switch fluorescence ratio of 1.03.
AAACGAGCTT showed a switch fluorescence ratio of 0.983.
With AAACGAGTCC the switch fluorescence ratio was 1.08.
Sequence AAACGATCAG has a switch fluorescence ratio of 0.949.
AAACGCCTAG gave a switch fluorescence ratio of 1.01.
For AAACGCTTT, the switch fluorescence ratio was 1.02.
AAACGGCAAG was tested, and the switch fluorescence ratio was 1.08.
AAACGGCTTA showed a switch fluorescence ratio of 1.04.
With AAACGGTGCG the switch fluorescence ratio was 0.997.
Sequence AAACGTGTAC has a switch fluorescence ratio of 1.16.
AAACGTTTCG gave a switch fluorescence ratio of 1.07.
AAACTACGAG gave a switch fluorescence ratio of 0.992.
AAACTACGG was tested, and the switch fluorescence ratio was 1.05.
Sequence AAACTATCCA has a switch fluorescence ratio of 1.03.
AAACTCAAGA was tested, and the switch fluorescence ratio was 1.03.
For AAACTCTTGA, the switch fluorescence ratio was 0.989.
AAACTGAGTG was tested, and the switch fluorescence ratio was 1.02.
In the case of AAACTGATCT, the switch fluorescence ratio is reported as 1.03.
In the case of AAACTGGCCT, the switch fluorescence ratio is reported as 1.04.
In the case of AAACTGGTCC, the switch fluorescence ratio is reported as 1.11.
AAACTGGTCG was tested, and the switch fluorescence ratio was 0.977.
AAACTGTCG showed a switch fluorescence ratio of 0.973.
Work on AAACTGTGCG yielded a switch fluorescence ratio of 1.02.
With AAACTTGTGG the switch fluorescence ratio was 1.01.
AAAGAACCCG was tested, and the switch fluorescence ratio was 0.97.
With AAAGAAGATA the switch fluorescence ratio was 0.943.
Work on AAAGAGATGG yielded a switch fluorescence ratio of 0.967.
AAAGAGGCAG gave a switch fluorescence ratio of 0.996.
In the case of AAAGAGGGGT, the switch fluorescence ratio is reported as 1.01.
Work on AAAGAGTTAC yielded a switch fluorescence ratio of 0.985.
Sequence AAAGATA has a switch fluorescence ratio of 0.988.
Work on AAAGCACCGA yielded a switch fluorescence ratio of 1.11.
Sequence AAAGCCGAA has a switch fluorescence ratio of 0.986.
Sequence AAAGCCTGGT has a switch fluorescence ratio of 0.969.
In the case of AAAGCGGAGT, the switch fluorescence ratio is reported as 1.04.
With AAAGCGTGGC the switch fluorescence ratio was 1.08.
In the case of AAAGCTCAAC, the switch fluorescence ratio is reported as 1.07.
Sequence AAAGCTCAGA has a switch fluorescence ratio of 0.965.
In the case of AAAGCTGATA, the switch fluorescence ratio is reported as 0.987.
AAAGCTTAG gave a switch fluorescence ratio of 1.02.
With AAAGGACTTT the switch fluorescence ratio was 0.969.
For AAAGGCAGGG, the switch fluorescence ratio was 0.968.
For AAAGGCTAAC, the switch fluorescence ratio was 0.999.
For AAAGGCTAGG, the switch fluorescence ratio was 1.01.
In the case of AAAGGGAGCA, the switch fluorescence ratio is reported as 0.986.
Sequence AAAGGGGTCC has a switch fluorescence ratio of 1.04.
Work on AAAGGTAACA yielded a switch fluorescence ratio of 1.
For AAAGGTAGCG, the switch fluorescence ratio was 0.994.
For AAAGGTCGGA, the switch fluorescence ratio was 0.977.
In the case of AAAGGTGCTG, the switch fluorescence ratio is reported as 0.872.
With AAAGTAATCG the switch fluorescence ratio was 1.05.
AAAGTCTTTC was tested, and the switch fluorescence ratio was 1.01.
AAAGTGAGAC was tested, and the switch fluorescence ratio was 1.04.
AAAGTGGCTC showed a switch fluorescence ratio of 0.984.
Work on AAAGTGGTCC yielded a switch fluorescence ratio of 1.05.
With AAAGTGTCGC the switch fluorescence ratio was 0.962.
AAAGTTACCG was tested, and the switch fluorescence ratio was 1.08.
In the case of AAAGTTCAAA, the switch fluorescence ratio is reported as 0.971.
With AAAGTTCCAA the switch fluorescence ratio was 0.983.
Sequence AAATAAAGTT has a switch fluorescence ratio of 1.02.
AAATACGATG was tested, and the switch fluorescence ratio was 1.03.
AAATACTAGA showed a switch fluorescence ratio of 1.03.
Work on AAATACTTAC yielded a switch fluorescence ratio of 1.34.
For AAATAGACCA, the switch fluorescence ratio was 0.993.
AAATAGCCTT gave a switch fluorescence ratio of 1.12.
Work on AAATAGGC yielded a switch fluorescence ratio of 0.953.
AAATAGGTAC gave a switch fluorescence ratio of 0.974.
AAATATGTCA was tested, and the switch fluorescence ratio was 0.94.
AAATATTAGA was tested, and the switch fluorescence ratio was 1.02.
Sequence AAATCAATTC has a switch fluorescence ratio of 1.03.
AAATCAGGGT showed a switch fluorescence ratio of 0.988.
AAATCCACTC gave a switch fluorescence ratio of 1.02.
In the case of AAATCCCC, the switch fluorescence ratio is reported as 1.05.
For AAATCCGAGA, the switch fluorescence ratio was 1.05.
AAATCCGTAT showed a switch fluorescence ratio of 1.03.
With AAATCCTAGG the switch fluorescence ratio was 1.04.
AAATCGCCGC showed a switch fluorescence ratio of 1.11.
AAATCTAAGA gave a switch fluorescence ratio of 0.974.
Work on AAATCTACTA yielded a switch fluorescence ratio of 1.03.
Work on AAATCTTCTA yielded a switch fluorescence ratio of 1.04.
For AAATCTTGAC, the switch fluorescence ratio was 0.99.
AAATGACAAA showed a switch fluorescence ratio of 1.02.
AAATGACATC showed a switch fluorescence ratio of 1.01.
Sequence AAATGACTAT has a switch fluorescence ratio of 0.987.
Work on AAATGAGAT yielded a switch fluorescence ratio of 1.02.
AAATGAGCAT was tested, and the switch fluorescence ratio was 1.01.
In the case of AAATGAGGTG, the switch fluorescence ratio is reported as 1.03.
In the case of AAATGATAGT, the switch fluorescence ratio is reported as 1.
Work on AAATGCGGCA yielded a switch fluorescence ratio of 1.01.
AAATGGAAAT gave a switch fluorescence ratio of 0.965.
For AAATGGCGAG, the switch fluorescence ratio was 0.993.
Sequence AAATGGGCCA has a switch fluorescence ratio of 1.04.
For AAATGTATCG, the switch fluorescence ratio was 0.983.
AAATGTCACT gave a switch fluorescence ratio of 1.01.
AAATTAGATT showed a switch fluorescence ratio of 0.987.
AAATTATT gave a switch fluorescence ratio of 0.988.
Work on AAATTCAGAT yielded a switch fluorescence ratio of 1.08.
AAATTGTATC was tested, and the switch fluorescence ratio was 1.05.
Work on AAATTTCCGT yielded a switch fluorescence ratio of 1.06.
Sequence AAATTTCGAA has a switch fluorescence ratio of 0.994.
Work on AAATTTGTAA yielded a switch fluorescence ratio of 1.02.
Sequence AAATTTTCTA has a switch fluorescence ratio of 0.999.
AAATTTTTCG was tested, and the switch fluorescence ratio was 0.968.
With AACAAAGTGC the switch fluorescence ratio was 0.929.
Sequence AACAAAGTGG has a switch fluorescence ratio of 1.02.
In the case of AACAAATAGG, the switch fluorescence ratio is reported as 0.994.
AACAACAGCT was tested, and the switch fluorescence ratio was 0.998.
AACAATGGCT was tested, and the switch fluorescence ratio was 0.999.
In the case of AACAATTAAG, the switch fluorescence ratio is reported as 0.97.
In the case of AACAATTCT, the switch fluorescence ratio is reported as 1.05.
AACAATTTGT showed a switch fluorescence ratio of 0.969.
AACACATCGT showed a switch fluorescence ratio of 1.02.
In the case of AACACCGAGA, the switch fluorescence ratio is reported as 0.99.
In the case of AACACGGACA, the switch fluorescence ratio is reported as 1.52.
Work on AACACGGGAA yielded a switch fluorescence ratio of 1.02.
With AACACGTGTT the switch fluorescence ratio was 0.965.
AACAGAAAAT showed a switch fluorescence ratio of 0.996.
AACAGAGCCT showed a switch fluorescence ratio of 1.08.
Work on AACAGCGTCG yielded a switch fluorescence ratio of 0.985.
AACAGGTACG was tested, and the switch fluorescence ratio was 1.08.
AACAGGTCCG showed a switch fluorescence ratio of 1.23.
AACATAGCAG gave a switch fluorescence ratio of 1.02.
Sequence AACATCATCG has a switch fluorescence ratio of 1.14.
Sequence AACATGGTT has a switch fluorescence ratio of 1.01.
Work on AACATGTTGC yielded a switch fluorescence ratio of 0.996.
AACCAAATTT was tested, and the switch fluorescence ratio was 1.08.
AACCAATTTG showed a switch fluorescence ratio of 0.922.
AACCACGAGC was tested, and the switch fluorescence ratio was 1.01.
Sequence AACCACGGCA has a switch fluorescence ratio of 1.25.
AACCAGGAAA gave a switch fluorescence ratio of 1.
Sequence AACCAGTGCA has a switch fluorescence ratio of 1.02.
Work on AACCCAAATT yielded a switch fluorescence ratio of 1.03.
With AACCCCGTCA the switch fluorescence ratio was 0.991.
AACCCGGGTG showed a switch fluorescence ratio of 1.01.
In the case of AACCCTAATG, the switch fluorescence ratio is reported as 1.03.
Sequence AACCCTCTTG has a switch fluorescence ratio of 1.02.
Sequence AACCGAACGG has a switch fluorescence ratio of 1.1.
With AACCGCTAAG the switch fluorescence ratio was 1.26.
AACCGGGGCT was tested, and the switch fluorescence ratio was 1.09.
For AACCGGGGGC, the switch fluorescence ratio was 1.08.
In the case of AACCTAGATC, the switch fluorescence ratio is reported as 1.01.
With AACCTATGGC the switch fluorescence ratio was 1.07.
With AACCTATGTG the switch fluorescence ratio was 1.03.
Sequence AACCTCTCT has a switch fluorescence ratio of 1.04.
In the case of AACCTCTG, the switch fluorescence ratio is reported as 1.09.
For AACCTGCAAC, the switch fluorescence ratio was 1.82.
For AACCTGGTAC, the switch fluorescence ratio was 1.2.
AACCTGGTC gave a switch fluorescence ratio of 0.97.
AACCTGTGGT was tested, and the switch fluorescence ratio was 0.968.
In the case of AACCTTCCGG, the switch fluorescence ratio is reported as 2.35.
